In paper PMC4336329 (PLoS ONE, 2015):
The whole screen tested about 310,000 compounds, of which about 14,000 (4.5%) showed an effect of 50% or more. The effect is printed as a negative number. Some of the results follow.

biological target: human ether-à-go-go-related gene (hERG) potassium channel (human, UniProt Q12809); assay: primary screen, population patch clamp on CHO cells stably expressing hERG
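Note: peak tail current of the secondary pulse compared with the same well before compound.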

human ether-à-go-go-related gene (hERG) potassium channel, sequence (Q12809 whole entry, looked up): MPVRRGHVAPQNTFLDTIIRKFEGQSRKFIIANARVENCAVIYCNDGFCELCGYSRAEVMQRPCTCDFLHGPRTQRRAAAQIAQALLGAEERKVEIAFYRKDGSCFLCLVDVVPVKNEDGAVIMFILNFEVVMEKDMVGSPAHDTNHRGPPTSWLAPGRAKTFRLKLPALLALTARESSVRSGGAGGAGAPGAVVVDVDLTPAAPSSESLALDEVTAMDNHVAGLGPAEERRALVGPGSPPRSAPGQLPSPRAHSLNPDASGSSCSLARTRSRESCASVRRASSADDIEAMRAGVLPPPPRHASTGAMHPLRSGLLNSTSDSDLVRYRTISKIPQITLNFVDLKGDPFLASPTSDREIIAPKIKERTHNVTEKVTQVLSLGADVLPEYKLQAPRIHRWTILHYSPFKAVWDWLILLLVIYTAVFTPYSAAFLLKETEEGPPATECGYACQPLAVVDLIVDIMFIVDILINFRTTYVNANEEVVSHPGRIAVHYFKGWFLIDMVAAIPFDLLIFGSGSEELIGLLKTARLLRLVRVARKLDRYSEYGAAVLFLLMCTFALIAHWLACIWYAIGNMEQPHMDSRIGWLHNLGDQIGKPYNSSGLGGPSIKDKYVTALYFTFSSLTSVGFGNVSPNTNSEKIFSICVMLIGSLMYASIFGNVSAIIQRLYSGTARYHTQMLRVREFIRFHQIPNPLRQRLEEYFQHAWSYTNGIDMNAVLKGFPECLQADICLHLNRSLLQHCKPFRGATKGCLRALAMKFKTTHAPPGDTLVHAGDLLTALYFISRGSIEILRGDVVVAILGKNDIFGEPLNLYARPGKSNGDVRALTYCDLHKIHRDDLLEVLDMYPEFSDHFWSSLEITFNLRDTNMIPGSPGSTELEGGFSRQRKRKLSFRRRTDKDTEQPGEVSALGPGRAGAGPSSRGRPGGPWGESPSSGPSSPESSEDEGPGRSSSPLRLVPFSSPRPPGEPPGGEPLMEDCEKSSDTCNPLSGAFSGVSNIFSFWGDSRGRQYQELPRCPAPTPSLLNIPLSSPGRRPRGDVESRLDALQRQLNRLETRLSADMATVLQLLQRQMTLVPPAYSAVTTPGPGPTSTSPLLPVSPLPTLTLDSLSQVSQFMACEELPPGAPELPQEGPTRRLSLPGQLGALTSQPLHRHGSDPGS

Compound | hERG current change (%, negative = inhibition) at 10uM [%]
COc1ccccc1C1OC(c2cccc([N+](=O)[O-])c2)=NN1C(C)=O (stereo not shown) | -62
CCOC(=O)N1CCC(N(CCN(C)C)C(=S)Nc2ccc(Oc3ccccc3)cc2)CC1 | -6.02
COc1ccc(C2=NOC(CN3C(=O)c4ccccc4S3(=O)=O)C2)cc1 (stereo not shown) | -27
O=C(N/N=C/c1c(Cl)cccc1Cl)C(=O)NC1CC1 | 54.8
Cc1c(Cl)c([N+](=O)[O-])nn1CC(=O)NC12CC3CC(CC(C3)C1)C2 | 6.04
COc1cccc(CN2CCCC(C(=O)c3ccc4c(c3)OCO4)C2)c1OC (stereo not shown) | -63.3
COc1cc(/C=C2/C(=O)NN(c3cccc(C)c3)C2=O)ccc1OC(=O)c1ccco1 | 1.6
CCOC(=O)Cc1ccc2sc(-c3ccccc3)nc2c1 | -5.73
O=C(NNc1nc2cc3c(cc2s1)OCCO3)c1ccc(F)cc1 | -1
CCN(CC)S(=O)(=O)c1cccc(C(=O)Nc2cccnc2)c1 | -17.7
Cc1ccc(NC(=O)CN2C(=O)C(=O)N(C3CCCC3)C2=O)cc1Cl | -11.4
CCOc1ccc2oc(C(=O)NC3CC(C)(C)NC(C)(C)C3)c(C)c2c1 | 12.4
CCOc1nc(NCCN2CCOCC2)nc(NC(C)C)n1 | -9.84
CCC(Cc1ccccc1)n1c(=S)[nH]c2ccccc2c1=O (stereo not shown) | -6.3
COc1cc(OC)cc(C(=O)NCCNC(=O)c2ccccc2)c1 | 10.7
NC(=O)CCS(=O)(=O)c1ccc(Cl)cc1 | -18.3
Cc1c2c([n+]3n1CCC3)CC(C)(C)CC2=O.[Br-] | 32.1
COc1ccc(C(=O)N2CCN(Cc3ccccc3[N+](=O)[O-])CC2)cc1.O=C(O)C(=O)O | -58.9
O=C(Nc1ccc(NC(=O)C2CCCN2C(=O)OCc2ccccc2)cc1)c1ccco1 (stereo not shown) | 11.3
O=C(C1CCN(S(=O)(=O)c2cnc[nH]2)CC1)N1CCN(Cc2ccc3c(c2)OCO3)CC1 | 0.674
O=C(C1=C(O)C(=O)N(CCc2ccccc2)C1c1ccncc1)c1cc2ccccc2o1 (stereo not shown) | 6.99
CCOC(=O)CN1CC23C=CC(O2)C(C(=O)N2CCN(c4ccc(F)cc4)CC2)C3C1=O (stereo not shown) | 2.47

Compound | hERG current change (%, negative = inhibition) at 10uM [%]
O=C(Nc1ccc(S(=O)(=O)Nc2nccs2)cc1)C1CC(=O)N(c2ccc(Cl)cc2)C1 (stereo not shown) | 0.55
O=c1c(Cl)c(N/N=C/c2ccc(Br)cc2)cnn1-c1ccccc1 | 5.29
COc1cc(C)ccc1S(=O)(=O)NC1CC(C)(C)NC(C)(C)C1 | -8.88
O=C(NCc1ccccc1)c1csc2c1CCCCC2 | 15
CCn1c(SCC(=O)Nc2cc3oc4ccccc4c3cc2OC)nnc1-c1cccs1 | 17.1
CCN(CC)C(=O)c1cc([N+](=O)[O-])cc2c1-c1ccc([N+](=O)[O-])cc1C2=C(C#N)C#N | -22.8
CCOc1ccccc1-c1nc(C(N)=O)c2[nH]c(=O)n(-c3ccc(F)cc3)c2n1 | -12.6
CC(=O)OCc1c(C(F)(F)F)nn(C)c1Oc1cccc(C(F)(F)F)c1 | 2.3
CC1(c2ccc3ccccc3c2)NC(=O)N(CC(=O)N2CCC(C(N)=O)CC2)C1=O (stereo not shown) | 2.08
CC(=O)N(c1cccc(C)c1)C1SC(=O)N(c2ccccc2)C1=O (stereo not shown) | 15.7
CC1(C)Oc2ccccc2OC1(O)c1ccc2ccccc2n1 (stereo not shown) | 0.764
Cc1ccc(OCC(=O)N(C)Cc2ccccc2)c([N+](=O)[O-])n1 | 3.95
O=[N+]([O-])c1cc(-c2cnc3ccccc3n2)ccc1Oc1ccc(Cl)cc1 | -0.863
O=C(NCCc1ccccc1F)C1CCCN1S(=O)(=O)c1ccccc1 (stereo not shown) | -33.3
O=C(Oc1csc(=S)n1C(=O)c1ccccc1)c1ccccc1 | 14.1
Cn1c(=O)n(C)c2cc(/C=C3/NC(=O)N(Cc4ccccc4)C3=O)ccc21 | 4.76
Cn1cccc1Cc1nnc(SCC(=O)NCc2ccc(F)cc2)n1-c1ccc(F)cc1 | -30.4
O=C(c1ccco1)N1CCN(C(c2ccccc2)c2nnnn2Cc2cccs2)CC1 (stereo not shown) | -38.9
O=C1NC(=O)N(c2ccccc2)C(=O)/C1=C/c1ccc([N+](=O)[O-])s1 | 11.8
Cc1cccc(C(=O)N[C@H](C(=O)Nc2ncc(C)s2)C(C)C)c1 | 46.4
CN(CC(=O)NCc1ccccc1Cl)CC(=O)Nc1ccccc1Br | -17.8
